In paper PMC4336329 (PLoS ONE, 2015):
Hit rate of the full screen: of about 310,000 compounds, about 14,000 (4.5%) showed an effect of 50% or more. The effect is printed as a negative number. The list shows a part of the results.

What follows are compounds tested against human ether-à-go-go-related gene (hERG) potassium channel (human, UniProt Q12809) (assay: primary screen, population patch clamp on CHO cells stably expressing hERG).
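Further: peak tail current of the secondary pulse compared with the same well before compound.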

human ether-à-go-go-related gene (hERG) potassium channel, sequence (Q12809 whole entry, looked up): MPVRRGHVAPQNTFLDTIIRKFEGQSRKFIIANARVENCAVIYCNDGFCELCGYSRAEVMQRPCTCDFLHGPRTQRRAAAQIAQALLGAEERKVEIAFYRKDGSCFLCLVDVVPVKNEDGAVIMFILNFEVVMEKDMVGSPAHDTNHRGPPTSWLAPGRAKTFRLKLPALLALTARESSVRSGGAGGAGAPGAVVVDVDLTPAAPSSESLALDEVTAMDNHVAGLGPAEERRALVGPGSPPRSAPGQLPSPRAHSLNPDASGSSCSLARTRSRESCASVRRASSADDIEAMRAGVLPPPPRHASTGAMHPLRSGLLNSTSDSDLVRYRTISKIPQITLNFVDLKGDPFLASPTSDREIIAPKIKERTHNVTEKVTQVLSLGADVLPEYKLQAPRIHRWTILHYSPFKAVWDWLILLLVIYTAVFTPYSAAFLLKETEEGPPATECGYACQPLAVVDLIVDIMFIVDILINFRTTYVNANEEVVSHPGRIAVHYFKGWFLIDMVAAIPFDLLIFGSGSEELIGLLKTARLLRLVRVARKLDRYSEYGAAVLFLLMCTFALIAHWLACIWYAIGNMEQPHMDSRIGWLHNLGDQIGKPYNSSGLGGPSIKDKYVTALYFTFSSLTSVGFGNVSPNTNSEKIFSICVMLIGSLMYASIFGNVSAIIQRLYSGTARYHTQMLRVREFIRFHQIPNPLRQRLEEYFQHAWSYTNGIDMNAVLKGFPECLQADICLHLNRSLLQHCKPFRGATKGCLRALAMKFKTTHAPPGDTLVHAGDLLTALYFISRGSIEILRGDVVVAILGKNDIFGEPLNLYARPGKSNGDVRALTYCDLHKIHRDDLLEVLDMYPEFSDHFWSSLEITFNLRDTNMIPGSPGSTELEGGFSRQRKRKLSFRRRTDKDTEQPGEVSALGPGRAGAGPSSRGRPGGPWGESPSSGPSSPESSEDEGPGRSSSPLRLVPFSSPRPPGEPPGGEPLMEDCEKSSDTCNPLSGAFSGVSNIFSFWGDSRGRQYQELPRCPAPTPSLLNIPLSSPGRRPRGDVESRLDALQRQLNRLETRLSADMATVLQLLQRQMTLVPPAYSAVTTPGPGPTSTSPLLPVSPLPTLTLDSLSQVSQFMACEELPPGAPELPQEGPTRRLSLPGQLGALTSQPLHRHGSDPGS

Structure (SMILES)	hERG current change (%, negative = inhibition) at 10uM [%]
CCOCCCNC(=O)CN1C(=O)COc2ccc(S(=O)(=O)N3CCC(C)CC3)cc21	6.25
CC1=NCCN1S(=O)(=O)c1cc(Cl)ccc1Cl	2.09
COc1ccc(CNc2ccc(-c3ccccc3OC)nn2)cc1	-13.1
CCOC(=O)c1ccccc1NC(=O)/C(C)=C/C(=O)O	-2.16
Cn1c(SCC(=O)N2CCCCCC2)nc2c([nH]c3ccccc32)c1=O	6.91
Clc1ccc(Nc2ccc(Cl)nn2)cc1	23.7
Cc1cc(C)cc(-n2c(O)c(C=Nc3ccc(N4CCOCC4)cc3)c(=O)[nH]c2=S)c1	-17.2
Cc1occc1-c1nnc(SCC(=O)Nc2ccc(F)cc2)n1Cc1ccccc1	-49.4
Cc1ccc(CN2C(=O)CCC2C(=O)NCCCN2CCOCC2)cc1 (centres unmarked)	25.6
CC(C)N(C(C)C)S(=O)(=O)c1ccc(Cl)nc1	4.68
COc1ccccc1-c1cn[nH]c1-c1ccc(OCC(=O)NN)cc1O	9.17
COc1cccc(CN(c2ccc3c(c2)CCC3)S(=O)(=O)c2ccc(-n3cnnn3)c(OC)c2)c1	21.2
COc1ccc(CCN(C)Cc2ccc(OC)c(OCc3ccccc3)c2)cc1OC	-81.6
CC(=O)C[C@H]1c2cc(F)ccc2S(=O)(=O)N1c1ccc(N(C)C)cc1	6.36
CC(C)c1ccc(O)c(NC(=S)NC(=O)CCc2ccccc2)c1	17
O=C(C(c1ccccc1)c1ccccc1)N1CCN(c2ccccn2)CC1	5.55
CC(C)(CNC(=O)c1cccc(NS(=O)(=O)c2ccc(Br)cc2)c1)N1CCOCC1	-33.7
CCCOC(=O)CCc1n[nH]c(=O)[nH]c1=O	6.02
CCNc1nc(NC(C)C)nc(N(n2cnnc2)S(=O)(=O)c2ccc(C)cc2)n1	-25.1
COC(=O)/C(C#N)=C/c1c(N2CCN(C)CC2)nc2ccccn2c1=O	11.1
Cc1cccc(NS(=O)(=O)c2cc3c4c(c2)CCN4C(=O)CC3)c1C	-0.992
CCN(CC)C(=S)SCC(=O)c1ccccc1	-0.159

Structure (SMILES)	hERG current change (%, negative = inhibition) at 10uM [%]
CC1CCN(S(=O)(=O)N2CCC(C(=O)O)CC2)CC1	24.4
C=CCn1c(O)c2ccc(C(=O)N=NC(=O)COc3ccccc3F)cc2c1O	19.4
C/C(=N\NC(=O)Cn1ccc(C(F)(F)F)n1)c1ccc(N2CCOCC2)cc1	6.48
Cl.c1coc(CN(Cc2cccs2)Cc2nnnn2C2CCCCC2)c1	-1.8
O=C(NCCc1ccccn1)c1cc(-c2ccccc2Cl)nc2ccccc12	-2.8
CCOc1cc(/C=N\NC(N)=O)cc(Br)c1OC(C)C	-19.8
CC(OC(=O)c1nsc(Cl)c1Cl)C(=O)NCCc1ccccc1 (centres unmarked)	-65.4
CC(OC(=O)CC(NC(=O)c1ccccc1Cl)c1ccccc1)C(=O)Nc1cccc(Cl)c1Cl (centres unmarked)	-14.7
CCNc1ccc(S(=O)(=O)C(F)(F)F)cc1NC(=O)C12CCC(CC1)C2	15.8
O=C(CCC(=O)Nc1ccccc1)N/N=C/c1ccc2c(c1)OCO2	28.7
Cn1cc(CN2CCC(C(=O)Nc3ccc(Oc4ccccc4F)cc3)CC2)cn1	-65.6
CC(SCCc1ccccn1)C(=O)O (centres unmarked)	-3.91
Cc1nccn1CC(O)COc1ccc(Cl)cc1Cl (centres unmarked)	-49.6
CCC(=O)NC(/C=C/c1ccccc1)c1cc([N+](=O)[O-])c2cccnc2c1O (centres unmarked)	21.5
CN1C/C(=C\c2ccc(N3CCOCC3)cc2)C(=O)/C(=C/c2ccc(N3CCOCC3)cc2)C1	-4.91
COC(=O)c1sc(S(=O)(=O)Nc2ccc3cn[nH]c3c2)c(C(=O)OC)c1C	6.26
COc1cccc(NC(=O)c2cccs2)c1	-1.18
CCC1(CC)NC(=O)N(CC(=O)OCC(=O)Nc2ccc(C(F)(F)F)cc2)C1=O	1.14
Cc1ccc(-c2n[nH]c(=O)c3ccccc23)cc1S(=O)(=O)Nc1ccccc1	-0.992
C=CCn1c(C)nnc1SCC(=O)Nc1nc(C)c(C(=O)N(C)C)s1	-0.903
COc1ccc(NC(=O)C2CCN(S(=O)(=O)c3cccc4cccnc34)CC2)cc1	5.62
FC(F)(F)c1cc(-c2ccco2)nc(-n2nc(C(F)(F)F)cc2C2CC2)n1	2.87
